Reference: PubChem BioAssay AID686979 (National Center for Advancing Translational Sciences (NCATS), 2013)
The whole screen tested about 420,000 compounds, of which about 50,000 (12%) were called active. The shares of active, inactive and inconclusive entries below differ from those in the screen. Calls come from the whole dose curve; as a rule, active = well fitted inhibition curve with a large enough effect; inconclusive = small, poorly fitted or top-dose-only effect; inactive = flat fitted curve, though single readings scatter. No potency is given beside an inconclusive call; the fits are too rough. Where a SMILES comes first, the peptide text is derived from it. [ ]: non-standard residue; d: D form. The star is where a group is joined. ξ: configuration not given here. ξY = NC(Cc1ccc(O)cc1)C(=O)O; Cbz = O=C(OCc1ccccc1)*; OtBu = CC(C)(C)O*; tBu = CC(C)(C)*

assay: qHTS for Inhibitors of human tyrosyl-DNA phosphodiesterase 1 (TDP1): qHTS in cells in presence of CPT; details: chicken DT40 Tdp1-/-;hTDP1 cells + 20 nM CPT, ATP luminescence, 48 h; activity change, negative = growth inhibition: at 46.2 µM (top of the series) unless noted; note: nearly all actives have a fitted effect of over 55% in size
Procedure, shortened: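 Chicken DT40 Tdp1-/- cells complemented with human TDP1, 400 cells/well, exposed to compounds plus 20 nM camptothecin for at least 48 h at 37 C; viability read as ATP content by CellTiter-Glo luminescence.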
% is set by controls: 0 for no effect and ±100 for the full control effect; potency is the fitted concentration of half-maximal effect; tags give direction and shape of the fitted curve.

| SMILES | Potency | activity change, negative = growth inhibition |
| --- | --- | --- |
| COc1cc(NC(=O)COc2cc(C)cc3oc(=O)cc(C)c23)cc(OC)c1OC | inactive | – |
| COc1cccc(CC(=O)Nc2ccc3nc(C)sc3c2)c1 | inconclusive [inhibitor, partial curve] | – |
| CCNC(=S)N/N=C(\C)c1ccc2ccccc2c1OC(F)F | active: 23.1 µM | – |
| O=C(NCc1ccccc1)C(=O)NCC1COc2ccccc2O1 (configuration not stated) | active: 2.91 µM | – |
| COC(=O)c1c(NC(=O)C(=O)NCC2CCCO2)sc2c1CC(C)(C)OC2 (configuration not stated) | inconclusive [inhibitor, single point] | – |
| O=C(c1ccc(NS(=O)(=O)/C=C/c2ccccc2)cc1)N1CCCCC1 | inconclusive [inhibitor, single point] | – |
| CC(C)CCSc1nc(N2CCOCC2)c2c(c1C#N)CC(C)(C)OC2 | inconclusive [inhibitor, partial curve, poor fit] | – |
| CC(=O)N1c2ccc(S(=O)(=O)N3CCCC3C(=O)Nc3ccc(C)cc3)cc2CC1C (configuration not stated) | inconclusive [inhibitor, single point] | – |
| Cc1ccc(N(C(=O)Cn2nnc(-c3ccccc3)n2)C(C(=O)NC2CCCCC2)c2ccccn2)cc1C (configuration not stated) | inconclusive [inhibitor, partial curve] | – |
| CCOC(=O)c1c(NC(=O)COc2ccccc2)sc2c1CC(C)(C)NC2(C)C | inconclusive [inhibitor, single point] | – |
| CCOc1ccc(-n2c(=O)c3sccc3n(Cc3ccc(C)cc3)c2=O)cc1 | inconclusive [inhibitor, single point] | – |
| O=C(NCc1ccccc1)C12CC3CC(CC(Br)(C3)C1)C2 | inactive | – |
| O=C1c2ccccc2C(=O)N1c1ncccn1 | inactive | – |
| Cc1cc(S(=O)(=O)N2CCN(CC(=O)NCCc3cccs3)CC2)ccc1Br | inconclusive [inhibitor, single point] | – |
| CCOc1ccccc1NS(=O)(=O)c1c[nH]c(C(=O)OC)c1 | inconclusive [inhibitor, single point] | – |
| O=C(CSc1nnc(SCc2ccccc2)s1)N/N=C/C=C/c1ccco1 | inconclusive [inhibitor, single point] | – |
| O=c1c2sc3ccccc3c2n(Cc2cccc(C(F)(F)F)c2)c(=O)n1-c1ccccc1 | inconclusive [inhibitor, single point] | – |
| CCOC(=O)[C@]12CCCC=C1N(Cc1ccco1)C(=O)[C@H](CC(=O)NCc1ccccc1)C2 | inactive | – |
| CC(NC(=O)/C(C#N)=C/c1ccc(Cl)c([N+](=O)[O-])c1)c1ccccc1 (configuration not stated) | active: 3.66 µM | – |
| c1ccc(C[C@H]2CN=C(Nc3ccccc3)N2CC2CCCC2)cc1 | active: 10.3 µM | – |
| Cc1ccsc1C(=O)Nc1ccc(O)c(-c2nc3ccccc3s2)c1 | inconclusive [inhibitor, single point] | – |
| COc1ccccc1NS(=O)(=O)c1cccc(C(=O)N(C)Cc2cccs2)c1 | active: 23.1 µM | – |
| COc1ccc([C@H]2CC(=O)C=C(c3ccc(F)cc3OCc3ccccc3)C2)cc1 | inconclusive [inhibitor, single point] | – |
| CC(C)Oc1ccc(CNC(=O)CN2C(=O)c3cccnc3Oc3ccc(Cl)cc32)cc1 | active: 16.4 µM | – |

| SMILES | Potency | activity change, negative = growth inhibition |
| --- | --- | --- |
| CCS(=O)(=O)N1CCc2cc(C(=O)NC(C)c3ccccc3)ccc21 (configuration not stated) | – | inconclusive: -35.9% [inhibitor] |
| CN(C)c1ccc(NS(=O)(=O)c2ccc(-c3csnn3)cc2)cc1 | inconclusive [inhibitor, partial curve, poor fit] | – |
| CCOC(=O)N1CCC(N(C(=O)Nc2ccc(Cl)c(Cl)c2)C(C)CC)CC1 (configuration not stated) | active: 23.1 µM | – |
| CC1(C)CC[C@]2(CO)CC[C@]3(C)C(=CCC4[C@@]5(C)CC[C@H](O)[C@@](C)(CO)C5CC[C@]43C)[C@@H]2C1 (some centres not stated) | inconclusive [inhibitor, single point] | – |
| CC(C)(C)OC(=O)C(Cc1ccc(OC(C)(C)C)cc1)NC(=O)CNC(=O)OCc1ccccc1 (stereo not drawn) (Cbz-Gly-[ξY](tBu)-OtBu) | active: 16.4 µM | – |
| O=C(CSc1nnc(Cc2cccs2)n1Cc1ccco1)Nc1cc(Cl)cc(Cl)c1 | active: 25.9 µM | – |
| CC1CCCC(NC(=O)c2cccc(S(=O)(=O)N3CCOCC3)c2)C1C (configuration not stated) | inconclusive [inhibitor, single point] | – |
| O=C(O)c1ccc(Cl)c(NCc2cccs2)c1 | inactive | – |
| O=C(CNc1cccc(Cl)c1)NNC(=S)NCc1ccccc1 | inconclusive [inhibitor, single point] | – |
| CCOCCn1c(N(C)Cc2ccccc2)nc2c1c(=O)[nH]c(=O)n2C | inactive | – |
| COc1cc(C(=O)NCCC2=CCCCC2)ccc1OC1CCN(C(C)=O)CC1 | inconclusive [inhibitor, single point] | – |
| CC(C)CCNC(=O)CN(Cc1ccco1)C(=O)CCC(=O)Nc1nccs1 | inactive | – |
| Cc1ccc(S(=O)(=O)N2CCOCC2)cc1NC(=O)CN(C)CC(=O)Nc1cccc(F)c1 | inconclusive [inhibitor, single point] | – |
| COc1ccc(S(=O)(=O)c2cc3cc(C(C)(C)C)cc(O)c3oc2=O)cc1 | inconclusive [inhibitor, partial curve] | – |
| CN(Cc1ccccc1)S(=O)(=O)c1ccccc1[N+](=O)[O-] | inactive | – |
| CN(CC(=O)Nc1ccccc1C(F)(F)F)C(=O)c1ccccc1Sc1ccccc1C#N | inactive | – |
| CCOc1ccc(C(=O)NCC(=O)N2CC=C(c3ccccc3)CC2)cc1OCC | inactive | – |
| Cc1ccc(-c2cc3onc(-c4ccccc4)c3c(=O)n2C)cc1 | inconclusive [inhibitor, single point] | – |
| Cn1c(COc2ccccc2C(C)(C)C)nc2ccccc21 | inconclusive [inhibitor, single point] | – |
| Cc1ccsc1C(=O)Nc1cc(Cl)ccc1-n1cncn1 | inconclusive [inhibitor, single point] | – |
| COc1ccc(CCCNC(=O)C2(C)Cc3c(-c4cccc(C(N)=O)c4)ccnc3O2)cc1 (configuration not stated) | inconclusive [inhibitor, partial curve, poor fit] | – |
| Cn1c2c(c(=O)n(C)c1=O)C(c1ccccc1C(F)(F)F)CC(=O)N2 (configuration not stated) | inconclusive [inhibitor, single point] | – |
| O=C1c2ccccc2-c2onc3ccc(Oc4ccccc4)c1c23 | active: 3.26 µM | – |
| NC(=O)C1CCN(c2ccc(S(=O)(=O)N3CCC(Cc4ccccc4)CC3)cn2)CC1 | inconclusive [inhibitor, single point] | – |

| SMILES | Potency | activity change, negative = growth inhibition |
| --- | --- | --- |
| CC1(C)Cc2cccc(OCC(=O)Nc3ccccc3F)c2O1 | inconclusive [inhibitor, single point] | – |
| O=C1/C(=C/c2cccnc2)SC(=S)N1CCc1ccccc1 | inconclusive [inhibitor, single point] | – |
| CC1(C)CC(=O)C/C(=N/NC(=O)COc2ccc3ccccc3c2Br)C1 | inconclusive [inhibitor, single point] | – |
| CCCN1C(=O)NC2(O)C(=O)c3ccccc3C12O (configuration not stated) | inactive | – |
| CC(C)(C)[C@@H]1COC(=O)[C@@H](NC(=O)OCC2c3ccccc3-c3ccccc32)C/C=C\C[C@@H](CC(=O)NCCO)C(=O)N1 | active: 18.4 µM | – |
| CN1CCN(C(c2ccc(Br)cc2)c2cc(Cl)c3cccnc3c2O)CC1 (configuration not stated) | active: 16.4 µM | – |
| O=C1C=C(c2ccc3c(c2)oc2ccccc23)C[C@@H](c2ccc(Cl)cc2)C1 | inconclusive [inhibitor, single point] | – |
| CCOc1ccc(CN2CCN(Cc3cnn(CC)c3C)CC2CCO)cc1 (configuration not stated) | inconclusive [inhibitor, single point] | – |
| COc1ccccc1/C=C/CN1CCCC(CO)(CCc2ccccc2)C1 (configuration not stated) | active: 20.6 µM | – |
| COC(=O)c1cccc(NC(=O)c2cnn(C)c2)c1 | inactive | – |
| Cc1ccc(C(=O)N2CCN(c3cccc(Cl)c3)CC2)cc1-n1c(C)nc2cccnc21 | active: 10.3 µM | – |
| Cc1ccc(S(=O)(=O)N(C)c2ccc(OC(C)C(=O)N(C)c3ccccc3)cc2)cc1 (configuration not stated) | active: 14.6 µM | – |
| Cc1cc(NCCCn2ccnc2)n2nc(-c3ccc(Cl)cc3)cc2n1 | inactive | – |
| COc1ccc(CCNC(=O)c2c(N)no[n+]2[O-])cc1OC | inactive | – |
| Cc1cc(NC(=O)CSc2ccc3nnc(-c4cccs4)n3n2)no1 | inconclusive [inhibitor, single point] | – |
| O=C(Nc1ccccn1)c1ccc(Cl)c(S(=O)(=O)N2CCc3ccccc32)c1 | active: 16.4 µM | – |
| CC1(C)NC(=O)N(CC(=O)N2CCN(S(=O)(=O)c3ccccc3F)CC2)C1=O | inactive | – |
| Cc1nnc(N/N=C/c2ccccn2)[nH]c1=O | active: 4.61 µM | – |
| CCNC(=O)CC1C(=O)N(c2ccc(F)cc2)C(=O)N1Cc1ccc(OC)c(OC)c1 (configuration not stated) | inactive | – |
| Cc1ccc(S(=O)(=O)N2CCCC(C(=O)NCCc3ccc(S(N)(=O)=O)cc3)C2)cc1 (configuration not stated) | inconclusive [inhibitor, partial curve] | – |
| Cc1ccnc2ncccc12 | inactive | – |
| S=C(NCCc1ccccc1)N/N=C/c1ccccc1Cl | inconclusive [inhibitor, single point] | – |
| Cc1cccc(N(CC(=O)NC2CCCCC2)C(=O)CCCC(=O)Nc2ccccn2)c1C | inactive | – |
| CC1(C)Cc2ccccc2-c2c1c(=O)n(Cc1ccccc1)c1nnnn21 | inconclusive [inhibitor, single point] | – |
